This is an account of results in a collection of fitness landscapes (doi:10.1126/science.1257360).

This is one part of the list.

B1: PhoQ; a variant is named by its letters at X, in order, P23837 (parent)
chain: MKKLLRLFFPLSLRVRFLLATAAVVLVLSLAYGMVALIGYSVSFDKTTFRLLRGESNLFYTLAKWENNKLHVELPENIDKQSPTMTLIYDENGQLLWAQRDVPWLMKMIQPDWLKSNGFHEIEADVNDTSLLLSGDHSIQQQLQEVREDDDDAEMTHSVAVNVYPATSRMPKLTIVVVDTIPVELKSSYMVWSWFIYVLSANLLLVIPLLWVAAWWSLRPIEALAKEVRELEEHNRELLNPATTRELTSLVRNLNRLLKSERERYDKYRTTLTDLTHSLKTPLXXLQXXLRSLRSEKMSVSDAEPVMLEQISRISQQIGYYLHRASMRGGTLLSRELHPVAPLLDNLTSALNKVYQRKGVNISLDISPEISFVGEQNDFVEVMGNVLDNACKYCLEFVEISARQTDEHLYIVVEDDGPGIPLSKREVIFDRGQRVDTLRPGQGVGLAVAREITEQYEGKIVAGESMLGGARMEVIFGRQHSAPKDE

Variants of B1 are the subject of the assay. The assay is described as follows: enrichment ratio after two sorts for PhoP signalling (ratio (wild type AVST 3.29)); higher = more functional. The conditions noted are these: with PhoP (E. coli).
Regarding NWLR, the enrichment ratio was at most 0.25. Under QVDP stands at most 0.25; under SCRS, at most 0.25; under EIRN, at most 0.25. With QDCF, the enrichment ratio was at most 0.25. With YVAM, the enrichment ratio is at most 0.25. With LGWA, the enrichment ratio was at most 0.25. As for MGFS, the enrichment ratio amounted to 2.82. For DLNS, the enrichment ratio is at most 0.25. Regarding KGVC, the enrichment ratio was at most 0.25. For LSPQ, the enrichment ratio was at most 0.25. As to QDVI, the enrichment ratio was at most 0.25. Turning to RYNH, the enrichment ratio is at most 0.25.

For QAYP, the enrichment ratio is at most 0.25. Under DAEF stands at most 0.25; under KCQL, at most 0.25. In the case of QADH, the enrichment ratio was 0.951. Turning to SSMD, the enrichment ratio was determined as 3.52. Consider LCML, for which the enrichment ratio was 4.84.

Consider RSNP, for which the enrichment ratio is at most 0.25. As for HMQD, the figure is at most 0.25; as for FCGC, at most 0.25. As for RGMG, the figure is at most 0.25; as for EKGR, at most 0.25. For the variant LKYL, the enrichment ratio is at most 0.25. For KAVH, the enrichment ratio is at most 0.25. As to FPMW, the enrichment ratio was at most 0.25.

As for QNKL, the enrichment ratio is at most 0.25.

As to IKCH, the enrichment ratio was at most 0.25.

On to SNKK, for which the enrichment ratio was at most 0.25.

SCDR: the enrichment ratio is at most 0.25. As for WDNY, the figure is at most 0.25; as for ILVW, at most 0.25; as for TDID, at most 0.25. As to KNVY, the enrichment ratio was at most 0.25. KQSD: the enrichment ratio was at most 0.25. As for VYAD, the enrichment ratio was at most 0.25. As for KAPK, the enrichment ratio was at most 0.25. In the case of IPNC, the enrichment ratio was at most 0.25. Regarding LDNM, the enrichment ratio is at most 0.25. For the variant FSID, the enrichment ratio was at most 0.25. As for EDWF, the figure is at most 0.25; as for FEAR, at most 0.25; as for PFGF, at most 0.25. Under PSTK stands at most 0.25; under GLHG, at most 0.25; under AIMI, 5.72. As for FTPS, the figure is at most 0.25; as for HCAW, at most 0.25. Consider QVHI, for which the enrichment ratio is at most 0.25. Take SFLH: the enrichment ratio is at most 0.25.

Take FHYL: the enrichment ratio is at most 0.25.

Turning to ISKF, the enrichment ratio is at most 0.25. In the case of IEPT, the enrichment ratio was at most 0.25. On to TSGY, for which the enrichment ratio stood at 14.8. For the variant GVQF, the enrichment ratio was at most 0.25. On to NWQH, for which the enrichment ratio is at most 0.25. TQFQ: the enrichment ratio was determined as 9.67.

On to YRTH, for which the enrichment ratio is at most 0.25. Under VRHY stands at most 0.25. On to WNSW, for which the enrichment ratio was at most 0.25. Consider ITMV, for which the enrichment ratio is 5.93. With KTGH, the enrichment ratio is at most 0.25. For GTLH, the enrichment ratio amounted to 8.02. In the case of LESM, the enrichment ratio was at most 0.25. For the variant WRYH, the enrichment ratio was at most 0.25.

On to MKIY, for which the enrichment ratio was at most 0.25.

Regarding FDAN, the enrichment ratio was at most 0.25. Under GTFQ stands at most 0.25. Under YLVI stands at most 0.25. On to EFRS, for which the enrichment ratio is at most 0.25. With QTYP, the enrichment ratio was at most 0.25. As for TYTT, the figure is 0.277; as for TEGW, at most 0.25; as for TRFN, at most 0.25.

With QVWP, the enrichment ratio is at most 0.25. Under QMQI stands at most 0.25.

With QSSC, the enrichment ratio worked out at 10.7.

Take RSFR: the enrichment ratio was at most 0.25. Turning to SVFN, the enrichment ratio was at most 0.25. Regarding QFWD, the enrichment ratio is at most 0.25.

As to VACM, the enrichment ratio turned out to be 1.74. On to NIHV, for which the enrichment ratio is at most 0.25. As to WKFK, the enrichment ratio is at most 0.25. Under LPPW stands at most 0.25; under DRVM, at most 0.25. With HMEW, the enrichment ratio is at most 0.25. For TKWE, the enrichment ratio is at most 0.25. As for KDWP, the figure is at most 0.25. For the variant DAPT, the enrichment ratio was at most 0.25.

Take AQYT: the enrichment ratio is at most 0.25. As for GKDG, the figure is at most 0.25; as for SFVE, at most 0.25; as for KVRY, at most 0.25.

Consider AGQL, for which the enrichment ratio worked out at 11.6. As for QLEF, the enrichment ratio is at most 0.25. Under MEGI stands at most 0.25; under CLVY, at most 0.25.

Take EFSR: the enrichment ratio was at most 0.25. As for WVER, the figure is at most 0.25; as for FSEH, at most 0.25. Consider VSES, for which the enrichment ratio was at most 0.25. Under SLSI stands 12.7; under PDPM, at most 0.25; under ASMG, 17.6.

For the variant FPMY, the enrichment ratio is at most 0.25.

Turning to FTKQ, the enrichment ratio is at most 0.25. For YYWS, the enrichment ratio is at most 0.25. Consider HEWN, for which the enrichment ratio is at most 0.25. As for ILRM, the figure is at most 0.25. Under GFLP stands at most 0.25; under YWTV, at most 0.25; under WFMS, at most 0.25. Take SPHM: the enrichment ratio is at most 0.25.

As to IWLP, the enrichment ratio is at most 0.25. For LRHR, the enrichment ratio was at most 0.25. As to FDIW, the enrichment ratio was at most 0.25.

As to QLMN, the enrichment ratio is at most 0.25. For ALPW, the enrichment ratio is at most 0.25. For the variant DESD, the enrichment ratio was at most 0.25. Consider AKLC, for which the enrichment ratio was found to be 3.66. On to VNVA, for which the enrichment ratio is at most 0.25. Regarding QMHR, the enrichment ratio was at most 0.25. Turning to VYVA, the enrichment ratio was at most 0.25. As to SYDK, the enrichment ratio is at most 0.25. Turning to FSDE, the enrichment ratio was at most 0.25.

KIRS: the enrichment ratio worked out at 0.8. As for SHSP, the figure is at most 0.25; as for KENR, at most 0.25.

On to QDAN, for which the enrichment ratio was at most 0.25. As for HKGG, the figure is at most 0.25; as for LTNI, at most 0.25; as for ADES, at most 0.25. For the variant ESPP, the enrichment ratio was at most 0.25.

In the case of HIIM, the enrichment ratio was at most 0.25. With WKCQ, the enrichment ratio was at most 0.25. Regarding RQPR, the enrichment ratio is at most 0.25. Consider AQHK, for which the enrichment ratio is at most 0.25. As to MQYA, the enrichment ratio was at most 0.25. Turning to YPVP, the enrichment ratio is at most 0.25. Consider RDGC, for which the enrichment ratio is at most 0.25.

In the case of FAHF, the enrichment ratio is at most 0.25. As for QQHM, the figure is at most 0.25; as for GQDL, at most 0.25; as for VCDH, at most 0.25. In the case of FLLT, the enrichment ratio is at most 0.25. TTEN: the enrichment ratio was 5.63.

As for YEWH, the enrichment ratio was at most 0.25.

Turning to RMRS, the enrichment ratio was at most 0.25. As for KHIP, the figure is at most 0.25; as for NFRM, at most 0.25; as for LDIG, at most 0.25. IYQS: the enrichment ratio is at most 0.25.
